Laboratory results reported in the RNAGym collection of RNA variant scans (doi:10.1093/nar/gkz1192).
Read counts are not given, so values of variants with three or more changes are uncertain.

B1: CPEB3 Ribozyme (parent)
chain: UAACAGGGGGCCACAGCAGAAGCGUUCACGUCGCAGCCCCUGUCAGAUUCUGGUGAAUCUGCGAAUUCUGCUGUAUAUCUC

Variants of: B1
Experiment: self-cleavage, relative activity (ratio to wild type); higher = more cleavage; in vitro, sequencing
Procedure, shortened: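 For each CPEB3 ribozyme variant, relative activity is its cleaved/total read fraction divided by the unmutated ribozyme's. Barcoded error-prone PCR libraries were transcribed by T7 RNA polymerase (5 hours, 37°C) and held in DNase I for 15 min before an EDTA stop, with cleavage occurring throughout. Template-switching reverse transcription and Illumina sequencing were used to read the RNAs. A 5-read minimum applied, and results are the mean of three batches.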

| Variant | self-cleavage |
| --- | --- |
| UAACAGGAGGCCACAGCUGAAGCGUUCACGCCGCCGCCCCUGUCAGAUUCUGGUGAACCUGCGAAUUCUGCUGUAUAUCUC | 0.04 |
| UAACAGGAGGCCACAGCAGCAGCGUUCACGACGCAGCCCCUGUCAGAUUCUGGUGAAUCUGCGAAUUCUGCUGUAUAUCUC | 0.35 |
| UAACAGGAGGCCACAGCAGGGGCGUACACGUCGCAGCCCCUGUCAGAUUCUGGUGAAUCUGCGAAUUCUGCUGGAUACCUC | 0.05 |
| UAACAGGAGGCCACAGCAGGAGCGUUCGCGUCGCAGCCCCUGUCAGAUUCUGGUGAAUCUGCGAAUUCUGCUGUAUAUCUC | 0.37 |
| UAACAGGAGGCCACAGCAGGAGCGUCCACGUCGCAGCCCCUGUCAGAUUCUGGUGAAUCUGCGGAUUCUGCUGCAUAUCUC | 0.05 |
| UAACAGGAGGCCACAGCAGGAGCGUUCACGUCGCAGCCCCUGUCAGAUUCUGGCGAAUCUGCGAAUUCUGCUGUUUAUCUC | 0.08 |
| UAACAGGAGGCCACAGCAGUAGCGUUCACGUCGCAGCCCCUGUCAGAUUCCGGUGAAUCUGCGAAUUCUGCUGUAUAUCUC | 0.1 |
| UAACAGGAGGCCACAGCAGUAGCGUUCACGUCGCAGCCCCUGUCAGAUUCUGGUGAAUCUGCGAAUCCUGCUGUAUAUCUC | 0.15 |
| UAACAGGAGGCCACAGCAGAGGCGUUCUCGUCGCGGCCCCUGUCAGAUUCUGGUGAAUCUGCGAAUUCUGCUGUAUGUCUC | 0.19 |
| UAACAGGAGGCCACAGCAGAGGCGUUCACGUCGCAGCCCCUGUCAGAUUCUGGUGUAUCUGCGUACUCAGCUGUAUAUCUC | 0.07 |
| UAACAGGAGGCCACAGCAGAGGAGUUCACGUCGCAGCCCCUGUCAGAUUCUGGCGAAUCUGCGAAUUCUGCUGUAUAUCUC | 0.44 |
| UAACAGGAGGCCACAGCAGAGGCGUUCACGUCGCAGCACCUGUCAGAUUCUGGUGAAUCUGCGAAUUCUGCUGCAUAUCAC | 0.03 |
| UAACAGGAGGCCACAGCAGAGGCGAUCACGUCGCAGCCCCUGUCAGAUUCUGGUGAAUCUGCGAAUUCUGCCGUAUAUCUC | 0.32 |
| UAACAGGAGGCCACAGCAGAGGCGCUCACGUCGCAGCCCCUGACAGAUUCUGGUGAAUCAGCGAAUUCUGCUGUAUACCUC | 0.05 |
| UAACAGGAGGCCACAGCAGAGGCGUUCACGUCGCAGCCCCUGUCAGAUUCUGGCGAAUCUGCGAAUUCUGCUGUAUAUCUC | 0.07 |
| UAACAGGAGGCCACAGCAGAAGCGUUCCCGUCGCAGCCCCUGUCAGAUUCUUGGGAAUCCGCGAGCUCUGCUGUAUAUCUC | 0.06 |
| UAACAGGAGGCCACAGCAGAAGCGUUCGCGUCGCAGCCCCUAUCAGACUCUGGUGAGUCUGCGAUUUCUGCUGUAUAUCUC | 0.03 |

| Variant | self-cleavage |
| --- | --- |
| UAACAGGAGGCCACAGCAGAAGCGUUCACGUCGCGGCCCCUGUCAGAUUCUGGUGAAUCUGCGUAUUCUGCUGCAUAUCCC | 0.24 |
| UAACAGGAGGCCACAGCAGAAGCGUUCACGUCGCGGCCCCCGUCAGAUUCUGGUGAAUCUGCGAAUUCUGCCGUAUAUCAC | 1 |
| UAACAGGAGGCCACAGCAGAAGCGUUCACGUCGCGGCCCCUGUCAGAUCCUGGUGAAUCUGCGAAUUCUGCUGUAUAUCCC | 0.25 |
| UAACAGGAGGCCACAGCAGAAGCGUUCACGUCGCGGCCCCUGUCAGAUUCUGGUGAAUCUGCGAAUUCUGCCGUAUAUCUC | 0.51 |
| UAACAGGAGGCCACAGCAGAAGCGUUCACGUCGCUGCCCCUGUCAGAUUCUGGUGAAUCUGCGAAUUCAGCUGUAUAUCUC | 0.06 |
| UAACAGGAGGCCACAGCAGAAGCGUUCACGUCGCAGCCCCUGUCCGAUUCAGGUGAAUCUGUGAAUUCUGCUGUAUAUCUC | 0.06 |
| UAACAGGAGGCCACAGCAGAAGCGUUCACGUCGCAGCCCCUGUCGGAUUCUGGUGUAUCUGCGAACUCUGCUGUAUAUCUC | 0.12 |
| UAACAGGAGGCCACAGCAGAAGCGUUCACGUCGCAGCCCCUGUCGGACUCUGGUGAAUCCGCGAGUUCUGCCGUAUAUCUC | 0.07 |
| UAACAGGAGGCCACAGCAGAAGCGUUCACGUCGCAGCCCCUGUCGGAUUCUGGUGAAUCUGCGAAUCCUGCUGUAUAUCUC | 0.12 |
| UAACAGGAGGCCACAGCAGAAGCGUUCACGUCGCAGCCCCUGUCAGGUUCUGGUGAGUCUGCGAAUUCUGCUGUAUAUCCC | 0.06 |
| UAACAGGAGGCCACAGCAGAAGCGUUCACGUCGCAGCCCCUGUCAGUUUCUGGUGAAUCUGCGAAUUCUGCUGUAUGUCUC | 0.15 |
| UAACAGGAGGCCACAGCAGAAGCGUUCACGUCGCAGCCCCUGUCAGUUUCUGGUAAAUCUGCGAAUUCUGUUGUAUAUCUC | 0.04 |
| UAACAGGAGGCCACAGCAGAAGCGUUCACGUCGCAGCCCCUGUCAGAUUCUGGUGGAUCUGCGAGUUCUGCUGUACAUCUC | 0.06 |
| UAACAGGAGGCCACAGCAGAAGCGUUCACGUCGCAGCCCCUGUCAGAUUCUGGUGAGUCUGCGAAUUCUGCUGUAUACCUC | 0.36 |
| UAACAGGAGGCCACAGCAGAAGCGUUCACGUCGCAGCCCCUGUCAGAUUCUGGUGAAUCUGCGGAUUCUGAAGUACAUCUC | 0.06 |
| UAACAGGAGGCCACAGCAGAAGCGUUCACGUCGCAGCCCCUGUCAGAUUCUGGUGAAUCUGCGUAUUCUGCUAUAUAUCUC | 0.06 |
| UAACAGGAGGCCACAGCAGAAGCGUUCACGUCGCAGCCCCUGUCAGAUUCUGGUGAAUCUGCGACUCCUGCUGUAUAUCUC | 0.14 |
